{
  "source": "PubChem BioAssay AID651820",
  "about": "(National Center for Advancing Translational Sciences (NCATS), 2012)",
  "note": "Among all 340,000 compounds or so, about 12,000 (3.5%) were called active. Inconclusive results, whose numbers are uncertain, are shown with a selection of clear calls. The call rests on the fitted dose curve; in most records, active means well fitted inhibition curve with a large enough effect; inconclusive means small, poorly fitted or top-dose-only effect, or another doubt; inactive means no such curve, though single readings can be large or run the other way. No potency is given beside an inconclusive call; the fits are too rough. Potency means the concentration at half of the fitted maximal effect; tags describe the fitted curve by direction and shape.",
  "data": [
    {"test": "qHTS Assay for Inhibitors of Hepatitis C Virus (HCV)", "conditions": "Huh7.5.1 HCVcc-Cre (HCVcc is cell-culture hepatitis C virus) infection, luciferase reporter, 44 h; series mostly up to 41.8 µM", "method_in_brief": "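Whole-lifecycle infectious HCVcc-Cre system; cells 1,000/well, compound then virus (~0.5 moi) added 4 h after plating, 44 h culture. Luciferase read 15 sec following 15 min substrate incubation, room temp.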", "values": [
      {"smiles": "CCCCC(=O)N/N=C/c1ccc(-c2ccc([N+](=O)[O-])cc2)o1", "Potency": "inconclusive [inhibitor, single point]"},
      {"smiles": "Cc1ccc(Nc2nc(CSc3nnc(-c4cccnc4)n3-c3ccccc3C)cs2)cc1", "Potency": "active: 31.6 µM"},
      {"smiles": "CCCCN(CC)CCNC(=O)c1cc2c(=O)n(CC)c3ccccc3c2s1", "Potency": "active: 2.51 µM"},
      {"smiles": "COC(=O)C1CCN(C(=O)COC(=O)c2oc3ccc(OC)cc3c2C)CC1", "Potency": "inactive"},
      {"smiles": "COc1cccc(OC)c1OCCCOc1ccc([N+](=O)[O-])cc1Cl", "Potency": "inconclusive [inhibitor, partial curve, poor fit]"},
      {"smiles": "CC1CC(=O)C2=C(C1)Nc1ccccc1N=C2", "note": "(stereo unspecified)", "Potency": "inactive"},
      {"smiles": "COC(=O)C1=C(C)NC2=C(C(=O)CC(c3cccs3)C2)C1c1ccsc1", "note": "(stereo unspecified)", "Potency": "inactive"},
      {"smiles": "Cc1ccc2c(=O)n3c(nc2c1)C(Cc1ccccc1)NC(=O)c1cc(Cl)ccc1-3", "note": "(stereo unspecified)", "Potency": "inactive"},
      {"smiles": "O=C(Nc1nc2c(s1)CCCC2)c1cccc(S(=O)(=O)N2CCCc3ccccc32)c1", "Potency": "inconclusive [inhibitor, single point]"},
      {"smiles": "CCCC(=O)NC(=S)Nc1ccc(N2CCN(C(=O)c3cccs3)CC2)cc1", "Potency": "active: 0.794 µM"},
      {"smiles": "Cc1ccc2c(c1)[C@H]1[C@H](CO2)[C@H](c2ccccc2)[C@]2(C)C(=O)N(Cc3ccccc3)CC(=O)N12", "Potency": "inconclusive [inhibitor, single point]"},
      {"smiles": "COc1cc2c(cc1NC(=O)c1ccco1)CCCC2", "Potency": "inconclusive [inhibitor, full curve]"},
      {"smiles": "C=CCNc1nc(Cl)nc(Nc2ccc(OC)cc2OC)n1", "Potency": "inconclusive [inhibitor, full curve]"},
      {"smiles": "O=C(CSCc1ccccc1)N/N=C/c1cc2c(cc1Br)OCO2", "Potency": "inconclusive [inhibitor, single point]"},
      {"smiles": "O=C(CN1C(=O)c2cccc3cccc1c23)Nc1ccc(S(=O)(=O)N2CCOCC2)cc1", "Potency": "inconclusive [inhibitor, single point]"},
      {"smiles": "O=C1CC(c2ccccc2)CC(=O)C1=CN1CCCC1", "note": "(stereo unspecified)", "Potency": "inconclusive [inhibitor, single point]"},
      {"smiles": "CCCCNCCOc1ccccc1-c1ccccc1", "Potency": "inconclusive [inhibitor, partial curve, poor fit]"},
      {"smiles": "COc1ccc(C)cc1NC(=O)NC1CCN(Cc2ccccc2)CC1", "Potency": "inconclusive [inhibitor, partial curve]"},
      {"smiles": "CCN(Cc1ccccc1)c1ccc(/C=N/NC(=S)NC(C)C)cc1", "Potency": "inconclusive [inhibitor, partial curve]"},
      {"smiles": "Cc1cc(C(=O)Nc2ccncc2)ccc1[N+](=O)[O-]", "Potency": "inconclusive [inhibitor, partial curve]"},
      {"smiles": "O=C(NC(CSSCC(NC(=O)c1ccccc1)C(=O)O)C(=O)O)c1ccccc1", "note": "(stereo unspecified)", "Potency": "active: 1.58 µM"},
      {"smiles": "Cc1cccc(Cn2c(C)nc3ccc([N+](=O)[O-])cc3c2=O)c1", "Potency": "inconclusive [inhibitor, partial curve]"},
      {"smiles": "Clc1cc2cccnc2c2ncccc12", "Potency": "active: 2.82 µM"},
      {"smiles": "Nc1ccc(C#Cc2ccccc2)cc1", "Potency": "inconclusive [inhibitor, single point]"},
      {"smiles": "Cc1cc(Cl)ccc1NC(=O)NC1CCN(S(=O)(=O)c2ccc(F)cc2)CC1", "Potency": "active: 4.47 µM"},
      {"smiles": "CCc1cc(C(c2ccccc2OC)N2CCOCC2)c(NC(=O)c2ccccc2)s1", "note": "(stereo unspecified)", "Potency": "inconclusive [inhibitor, single point]"},
      {"smiles": "O=C(N/N=C/c1ccccc1O)/C(=C/c1ccccc1)CCO", "Potency": "inconclusive [inhibitor, full curve]"},
      {"smiles": "CCn1c(C)c(C(=O)c2ccccc2)c(C#N)c1C(=O)O", "Potency": "inconclusive [inhibitor, partial curve]"},
      {"smiles": "CCc1ccc2[nH]c(=O)c(CN(Cc3ccccc3)C(=O)Nc3ccccc3OC)cc2c1", "Potency": "active: 2.51 µM"},
      {"smiles": "COc1ccc(C(=O)Cc2ccc3c(c2)OCO3)c(O)c1", "Potency": "inactive"},
      {"smiles": "CCCC/C(=N\\NC(=O)c1ccc(Br)o1)c1ccccc1", "Potency": "inconclusive [inhibitor, full curve, poor fit]"},
      {"smiles": "COc1ccc(/C=N/NC(=O)c2cccc(NC(=O)c3ccccc3Cl)c2)cc1", "Potency": "inactive"},
      {"smiles": "CCOC(=O)c1c(-c2ccccc2Cl)csc1NC(=O)c1cc(S(=O)(=O)N2CCOCC2)ccc1C", "Potency": "inconclusive [inhibitor, partial curve]"},
      {"smiles": "C/C(=N\\NS(C)(=O)=O)c1ccccc1", "Potency": "inconclusive [inhibitor, single point]"},
      {"smiles": "O=C(O)c1cc(-c2ccco2)nc2ccccc12", "Potency": "inactive"},
      {"smiles": "CCOc1cc(C(=O)NC(=S)Nc2cccnc2)cc(OCC)c1OCC", "Potency": "inconclusive [inhibitor, full curve]"},
      {"smiles": "CN(CC(=O)Nc1ccccc1Cl)C(=O)COC(=O)c1nc(Cl)c(Cl)c(Cl)c1Cl", "Potency": "inconclusive [inhibitor, single point]"},
      {"smiles": "O=C(c1ccccc1)N1CCN(c2ccc(N3CCOCC3)nn2)CC1", "Potency": "inactive"},
      {"smiles": "O=C(NCCN1CCOCC1)c1ccc2ccccc2c1", "Potency": "inactive"},
      {"smiles": "Cc1cccc(NC(=O)CSc2ccc(-c3ccco3)nn2)c1C", "Potency": "inconclusive [inhibitor, partial curve]"},
      {"smiles": "CC1=C(C(=O)OCC2CCCO2)C(c2coc3ccc(C)cc3c2=O)C2=C(CCCC2=O)N1", "note": "(stereo unspecified)", "Potency": "inactive"},
      {"smiles": "CNc1ncnc(Sc2nc(N)nc3nc[nH]c23)c1[N+](=O)[O-]", "Potency": "inconclusive [inhibitor, full curve]"},
      {"smiles": "O=C(Nc1ccc(N2CCOCC2)c(Cl)c1)c1ccc(Br)o1", "Potency": "active: 10 µM"},
      {"smiles": "COc1ccc(C(=O)Nc2ccc(NC(=O)c3ccccc3)cc2)cc1S(=O)(=O)N1CCOCC1", "Potency": "inconclusive [inhibitor, partial curve, poor fit]"},
      {"smiles": "CC(=O)NC(CCS(C)(=O)=O)C(=O)Nc1cccc2ccccc12", "note": "(stereo unspecified)", "Potency": "inactive"},
      {"smiles": "COc1ccc(/C=C/C(=O)Nc2ccc(S(=O)(=O)N3CCOCC3)cc2)c(OC)c1", "Potency": "active: 10 µM"},
      {"smiles": "CCn1c(=O)n(CC)c2cc(N3CCCC3)c(NC(=O)c3cccc(Cl)c3)cc21", "Potency": "active: 6.31 µM"},
      {"smiles": "CCCCNCc1cc(Br)c(OCC(=O)N2CCOCC2)c(OC)c1", "Potency": "inactive"},
      {"smiles": "O=C1[C@H](Oc2ccccc2)[C@@H](c2ccccc2)N1c1ccncc1", "Potency": "inconclusive [inhibitor, single point]"},
      {"smiles": "Cc1ccc(-c2nc(NCCCO)c3ccccc3n2)cc1", "Potency": "inconclusive [inhibitor, partial curve]"},
      {"smiles": "COc1ccc(-c2[nH]c(-c3cccc(OC)c3)nc2SCC(=O)NCc2ccco2)cc1", "Potency": "active: 11.2 µM"},
      {"smiles": "COc1cc(/C=C2\\SC(=S)N(CC(=O)Nc3ccccn3)C2=O)cc(OC)c1OC", "Potency": "inconclusive [inhibitor, single point]"},
      {"smiles": "COC(=O)c1ccc(NC(=O)c2cccc(NC(=O)c3ccco3)c2)cc1", "Potency": "inconclusive [inhibitor, partial curve]"},
      {"smiles": "Cc1ccc(S(=O)(=O)N2CCCCC2CCNC(=O)C(=O)NCc2ccccc2C)cc1", "note": "(stereo unspecified)", "Potency": "inconclusive [inhibitor, full curve]"},
      {"smiles": "COc1ccc2[nH]c3nc(SCc4nnc(-c5ccccc5)o4)nnc3c2c1", "Potency": "inconclusive [inhibitor, partial curve]"},
      {"smiles": "COc1ccc(OC)c(NC(=O)CSc2nncc3ccc(OC)c(OC)c23)c1", "Potency": "inconclusive [inhibitor, single point]"},
      {"smiles": "CCc1ccccc1NC(=O)Cc1ccc(-n2cccc2)cc1", "Potency": "inconclusive [inhibitor, single point]"},
      {"smiles": "O=C(NCC1CCCO1)c1ccc(COc2ccccc2)o1", "note": "(stereo unspecified)", "Potency": "inactive"},
      {"smiles": "COc1ccc(/C=C(/C#N)C(=O)Nc2cccc([N+](=O)[O-])c2)cc1C(=O)O", "Potency": "inconclusive [inhibitor, single point]"},
      {"smiles": "CCN(CC)c1ccc(S(=O)(=O)N2CCOCC2)cc1NC(=O)CSc1ccccc1", "Potency": "inconclusive [inhibitor, single point]"},
      {"smiles": "COc1ccc(-n2c(N)cc(=O)nc2SCC(=O)N2CCN(c3ccccc3)CC2)cc1", "Potency": "inactive"},
      {"smiles": "CCc1nnc(NC(=O)CCC(=O)N2CCN(Cc3ccc(Cl)cc3)CC2)s1", "Potency": "inconclusive [inhibitor, single point]"},
      {"smiles": "COc1ccc(CNC(=O)c2cccc(S(=O)(=O)N3CCN(c4ccc(F)cc4)CC3)c2)cc1", "Potency": "active: 7.08 µM"},
      {"smiles": "CCCOc1ccc(-c2nc(N3CCN(CC)CC3)c3ccccc3n2)cc1", "Potency": "inconclusive [inhibitor, partial curve]"},
      {"smiles": "CCOc1cc(/C=C2/NC(=O)N(CC(=O)OC)C2=O)ccc1O", "Potency": "inconclusive [inhibitor, full curve]"},
      {"smiles": "CC1CCN(CCCCOc2ccc(C(=O)c3ccccc3)cc2)CC1", "Potency": "inconclusive [inhibitor, partial curve]"},
      {"smiles": "O=C(C1CCC(CNc2nc(=S)[nH]c3ccccc23)CC1)N1CCN(c2ccc(F)cc2)CC1", "note": "(stereo unspecified)", "Potency": "inconclusive [inhibitor, partial curve]"},
      {"smiles": "Clc1ccc(C(Cl)(Cl)Cl)c(Cl)c1", "Potency": "inconclusive [inhibitor, partial curve]"},
      {"smiles": "COc1cccc2c1Oc1ncccc1N(C(=O)CCC(=O)NCc1ccccc1F)C2", "Potency": "inactive"},
      {"smiles": "CCCOc1cccc(C(=O)NC(=S)Nc2cccc(NC(=O)c3ccccc3Cl)c2)c1", "Potency": "inactive"},
      {"smiles": "CCc1ccc(S(=O)(=O)N2c3ccc(C)cc3C3CN(C)CCC32)cc1", "note": "(stereo unspecified)", "Potency": "inconclusive [inhibitor, single point]"}
    ]}
  ]
}
